A number of entries come with more than one value. Only these are listed. The source may hold further records. The records of an entry are repeats in other runs, samples, wells, individuals or studies.
Columns and labels:
Assay type in all cases: toxicity, cell-based
Fibroblast = test: Multiplex assay against human fibroblast
Summary of the method: (§1)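 Live cells were stained at seeding with Hoechst33342, BioTracker Green Microtubule Cytoskeleton Dye, MitoTracker Red and Annexin V Alexa Fluor 680, then imaged on a CQ1 microscope at 37°C and 5% CO2 after compound addition. CellPathfinder machine-learning gating split cells into Hoechst high-intensity objects or normal cells. Normal cells were split into healthy, pyknosed or fragmented nuclei, and pyknosed cells into mitotic or apoptotic. Tubulin, mitochondrial-mass and membrane-permeability phenotypes are per cents of healthy-nucleus cells.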

HEK-293T = test: Multiplex assay against HEK293T; conditions: human; summary of the method: as §1
U2OS = test: Multiplex assay against U2OS; conditions: human; summary of the method: as §1
[1] = 48 h, 1 µM, compound concentration 1 uM
[2] = 48 h, 10 µM, compound concentration 10 uM
[3] = 12 h, 1 µM, compound concentration 1 uM
[4] = 12 h, 10 µM, compound concentration 10 uM
[5] = 24 h, 1 µM, compound concentration 1 uM
[6] = 24 h, 10 µM, compound concentration 10 uM

SMILES	Population Mitochondria Different-Phenotype (%) (Fibroblast; [1])	Population Tubulin-Different-Phenotype (%) (HEK-293T; [3])	Population Tubulin-Different-Phenotype (%) (HEK-293T; [4])	Total Cell Count (HEK-293T; [5])	Population Pyknosed Nuclei (%) (HEK-293T; [1])	Population Tubulin-Different-Phenotype (%) (HEK-293T; [1])	Total Cell Count (HEK-293T; [1])	Population Tubulin-Different-Phenotype (%) (HEK-293T; [2])	Total Cell Count (HEK-293T; [2])	Population Healthy Nuclei (%) (HEK-293T; [3])	Population Healthy Nuclei (%) (HEK-293T; [5])	Population Apoptotic (%) (Fibroblast; [1])	Population Mitochondria Different-Phenotype (%) (HEK-293T; [4])	Population Apoptotic (%) (HEK-293T; [1])	Population Mitochondria Different-Phenotype (%) (U2OS; [4])	Total Cell Count (U2OS; [1])	also measured
Cc1cc(C)c(NC(=O)C2CC3CCC2C3)c(C)c1 (stereo not drawn)	15.52% and 2.34%	4.55% and 22.5%	3.7% and 16.22%	589 and 171	10.43% and 36.92%	1.88% and 50.41%	1409 and 198	1.3% and 32.39%	917 and 247								Population Tubulin-Different-Phenotype (%) (Fibroblast; [2]): 7.27% and 23.59%; Population Mitochondria Different-Phenotype (%) (HEK-293T; [5]): 17.16% and 4%; Total Cell Count (U2OS; [2]): 1144 and 347
Cc1[nH]nc2ccc(-c3cncc(OCC(N)Cc4c[nH]c5ccccc45)c3)cc12 (stereo not drawn)		6.93% and 38.46%	66.67% and 20%			1.52% and 25%				29.11% and 8.23%	19.81% and 4.61%						Population Mitotic Cells (%) (Fibroblast; [6]): 34.06% and 6.62%; Population Mitotic Cells (%) (Fibroblast; [2]): 59.57% and 4.55%; Population Mitochondria Different-Phenotype (%) (HEK-293T; [3]): 31.68% and 7.69%; Population Tubulin-Different-Phenotype (%) (HEK-293T; [5]): 11.11% and 42.86%; Population Mitotic Cells (%) (HEK-293T; [6]): 19.7% and 3.36%; Population Mitochondria Different-Phenotype (%) (U2OS; [3]): 1.78% and 36.11%; Population Mitochondria Different-Phenotype (%) (U2OS; [5]): 0.79% and 22.22%; Population Membrane Permeable-Phenotype (%) (U2OS; [6]): 0% and 50%; Population Membrane Permeable-Phenotype (%) (U2OS; [1]): 0.88% and 14.29%
O=C1CSC(=O)N1C(CCc1ccncc1)COc1ccc(-c2cccc([N+](=O)[O-])c2)cc1 (stereo not drawn)		12.4% and 41.67%		385 and 128	15.22% and 48.55%	2.59% and 39.06%	749 and 138			46.54% and 8.82%	62.14% and 17.97%						Population Apoptotic (%) (Fibroblast; [2]): 38.1% and 12.5%; Population Tubulin-Different-Phenotype (%) (HEK-293T; [5]): 33.19% and 8.7%; Population Healthy Nuclei (%) (HEK-293T; [2]): 42.79% and 10.92%; Population Mitochondria Different-Phenotype (%) (U2OS; [6]): 27.67% and 87.62%; Population Mitochondria Different-Phenotype (%) (U2OS; [2]): 11.53% and 58.88%; Total Cell Count (U2OS; [2]): 545 and 170
N#Cc1ccnc(Nc2cc(C3CCN(C4COC4)CC3)cc(N3CCC(F)(F)C3)n2)c1			72.22% and 19.44%			9.85% and 72.73%	442 and 144	55% and 17.86%			42.39% and 13.39%	7.14% and 42.42%	35.19% and 0%	30.61% and 9.2%	11% and 60%	703 and 201	Population Membrane Permeable-Phenotype (%) (Fibroblast; [4]): 3.8% and 22.81%; Population Mitochondria Different-Phenotype (%) (HEK-293T; [3]): 34.62% and 10.53%; Population Membrane Permeable-Phenotype (%) (HEK-293T; [4]): 1.85% and 27.78%; Population Mitochondria Different-Phenotype (%) (HEK-293T; [6]): 59.57% and 15.91%; Population Tubulin-Different-Phenotype (%) (HEK-293T; [6]): 70.21% and 13.64%; Population Mitochondria Different-Phenotype (%) (HEK-293T; [2]): 75% and 14.29%; Total Cell Count (U2OS; [3]): 383 and 127; Total Cell Count (U2OS; [5]): 499 and 146; Population Membrane Permeable-Phenotype (%) (U2OS; [2]): 2.3% and 13.85%
Cn1ncnc1COc1nn2c(-c3cc(F)ccc3F)nnc2cc1C(C)(C)C		7.09% and 38.46%		468 and 153	11.69% and 49.43%	2.65% and 46.43%	1095 and 177	10.91% and 58.93%	627 and 208	44.34% and 9.42%	70.09% and 18.3%	31.58% and 8.7%	36.89% and 9.09%		0.34% and 11.85%	1079 and 324	Population Fragmented Nuclei (%) (Fibroblast; [4]): 15.7% and 4.9%; Population Apoptotic (%) (Fibroblast; [5]): 5.88% and 39.13%; Population Tubulin-Different-Phenotype (%) (Fibroblast; [1]): 2.8% and 21.59%; Population Healthy Nuclei (%) (HEK-293T; [6]): 69.39% and 19.01%; Total Cell Count (U2OS; [5]): 627 and 199
CCOC(=O)c1cnn(-c2ccc(NC(=O)C(Cl)=C(Cl)Cl)cc2)c1C(F)(F)F	24.22% and 2.06%	4.43% and 33.33%	10.53% and 61.54%	557 and 160	11.69% and 48.21%	1.57% and 37.11%	1337 and 195			55.46% and 17.91%				5.13% and 18.09%	3.7% and 42.86%		Population Mitochondria Different-Phenotype (%) (Fibroblast; [4]): 3.85% and 22.58%; Population Mitotic Cells (%) (Fibroblast; [6]): 62.24% and 19.35%; Population Mitotic Cells (%) (Fibroblast; [2]): 64.52% and 16.13%; Population Tubulin-Different-Phenotype (%) (HEK-293T; [5]): 19.26% and 5.88%; Population Mitotic Cells (%) (HEK-293T; [6]): 36.78% and 9.42%; Population Mitotic Cells (%) (HEK-293T; [2]): 46.42% and 4.14%; Population Mitotic Cells (%) (U2OS; [2]): 13.37% and 1.82%
CN1CCN(c2ccc(Nc3c4ccccc4nc4ccccc34)cc2)CC1.Cl.Cl.O																	Population Mitochondria Different-Phenotype (%) (Fibroblast; [4]): 47% and 13%; Population Mitotic Cells (%) (Fibroblast; [4]): 8% and 33%; Population Tubulin-Different-Phenotype (%) (Fibroblast; [5]): 12% and 39%; Population Apoptotic (%) (Fibroblast; [2]): 68% and 0%; Population Mitotic Cells (%) (Fibroblast; [2]): 31% and 0%; Population Mitotic Cells (%) (HEK-293T; [2]): 0% and 33%; Population Membrane Permeable-Phenotype (%) (U2OS; [1]): 6% and 19%; Population Pyknosed Nuclei (%) (U2OS; [2]): 15% and 4%
C[C@H](C[C@H](N)C(=O)O)C(=O)O [2S,4R-4-METHYLGLUTAMATE]	13.04% and 2.67%	4.39% and 50%		555 and 162	10.11% and 38.97%	0.93% and 43.86%	1365 and 200	0.62% and 14.52%	1241 and 323	61.19% and 13.33%				6.52% and 23.68%		994 and 281	Population Membrane Permeable-Phenotype (%) (Fibroblast; [4]): 12.39% and 1.63%; Population Apoptotic (%) (Fibroblast; [5]): 9.09% and 31.25%; Population Mitochondria Different-Phenotype (%) (Fibroblast; [2]): 15.92% and 2.84%; Population Healthy Nuclei (%) (HEK-293T; [4]): 54.39% and 11.63%; Population Pyknosed Nuclei (%) (HEK-293T; [5]): 22.6% and 70.99%; Population Pyknosed Nuclei (%) (HEK-293T; [6]): 18.38% and 58.71%; Total Cell Count (U2OS; [3]): 417 and 125; Total Cell Count (U2OS; [5]): 545 and 166
Cc1cc(Nc2ncc(Cl)c(Nc3ccccc3S(=O)(=O)C(C)C)n2)c(OC(C)C)cc1C1CCNCC1 [CERITINIB]			85.71% and 0%			7.44% and 83.78%	485 and 127			28.35% and 3.85%	50.36% and 16.18%	12% and 50%	85.71% and 0%				Population Membrane Permeable-Phenotype (%) (Fibroblast; [4]): 7.14% and 60%; Population Membrane Permeable-Phenotype (%) (Fibroblast; [6]): 17.65% and 57.39%; Population Membrane Permeable-Phenotype (%) (Fibroblast; [2]): 5.19% and 27.78%; Population Mitochondria Different-Phenotype (%) (Fibroblast; [2]): 45.19% and 8.33%; Population Mitotic Cells (%) (HEK-293T; [6]): 35.76% and 11.76%; Population Mitochondria Different-Phenotype (%) (U2OS; [3]): 11.21% and 81.63%; Population Mitochondria Different-Phenotype (%) (U2OS; [5]): 8.55% and 84.87%; Population Mitochondria Different-Phenotype (%) (U2OS; [1]): 3.1% and 53.44%; Population Tubulin-Different-Phenotype (%) (U2OS; [1]): 10.85% and 33.59%; Population Membrane Permeable-Phenotype (%) (U2OS; [2]): 7.09% and 31.25%
CN(C)CCCn1cc(C2=C(c3c[nH]c4ccccc34)C(=O)NC2=O)c2ccccc21 [GF-109203]		10.18% and 33.33%		499 and 166	15.38% and 50%	2.05% and 51.65%	871 and 186	26.39% and 83.87%		48.83% and 13.79%		7.14% and 33.33%	47.86% and 14.29%		1.11% and 73.68%	912 and 290	Population Fragmented Nuclei (%) (Fibroblast; [3]): 12.9% and 2.07%; Population Apoptotic (%) (Fibroblast; [5]): 1.69% and 14.29%; Population Apoptotic (%) (Fibroblast; [6]): 4.29% and 19.18%; Population Membrane Permeable-Phenotype (%) (Fibroblast; [2]): 1.74% and 16.28%; Population Healthy Nuclei (%) (HEK-293T; [4]): 37.5% and 9.52%; Population Healthy Nuclei (%) (HEK-293T; [6]): 47.09% and 11.18%; Population Fragmented Nuclei (%) (U2OS; [3]): 1.81% and 18.63%; Population Mitochondria Different-Phenotype (%) (U2OS; [3]): 0.29% and 13.79%; Population Fragmented Nuclei (%) (U2OS; [5]): 0.98% and 17.09%; Population Mitochondria Different-Phenotype (%) (U2OS; [6]): 12.87% and 89.66%; Population Fragmented Nuclei (%) (U2OS; [1]): 2.41% and 16.26%; Population Membrane Permeable-Phenotype (%) (U2OS; [2]): 6.45% and 25.93%
CC(C)(O)c1cnc(N2C[C@@]3(CCC[C@](C)(Cn4cnc5ccc(C#N)cc54)C3)OC2=O)cn1 [GSK2798745]	15.28% and 3.67%	7.14% and 29.17%		533 and 162		0.74% and 31.06%	1420 and 235	4.11% and 47.41%	736 and 219	59.66% and 14.55%		8.33% and 36.36%		2.45% and 26.98%	0.62% and 13.64%	903 and 270	Population Pyknosed Nuclei (%) (HEK-293T; [5]): 20.83% and 64.2%

Reference: ChEMBL document CHEMBL5724801, “EUbOPEN Chemogenomics Library - Multiplex” (2024)
